Screen size: about 280,000 compounds; about 540 (0.19%) were called active. This list was built around the results that the source calls inconclusive (neither active nor inactive); the mix of calls is not that of the screen. Calls come from the whole dose curve; as a rule, active = well fitted activation curve with a large enough effect; inconclusive = small, poorly fitted or top-dose-only effect; inactive = flat fitted curve, though single readings scatter. A potency beside an inconclusive call is a rough fit, not a confirmed value.
experiment: Quantitative High-Throughput Screen for Regulators of Epigenetic Control; conditions: murine LDR cells, GFP reporter derepression, 30 h; GFP activation: at 53.9 µM (top of the series); note: nearly all actives have a fitted effect of over 60% in size; for GFP activation: % of control where 0% means no effect
Method in brief: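 Murine LDR cells carrying a silenced, genomically integrated CMV-driven GFP reporter were exposed to compound for 30 hours at 37 C. After PBS washes, GFP-positive cells (20–120 um objects) were counted by laser-scanning microplate cytometry.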
Potency is the fitted concentration of half-maximal effect; tags give direction and shape of the fitted curve.

Q: With `CCc1ccccc1NC(=O)Nc1ccc2c(c1)N(CC)C(=O)c1ccccc1S2` as the compound, how does the Potency read?
A: The Potency was inconclusive: 25.1 µM [activator, single point].

Q: For `O=C(Nc1ccc(OC(F)(F)F)cc1)c1nc2ccccc2nc1N1CCCCC1`, which “GFP activation” value is on record?
A: The value was inactive: 6.49%.

Q: Which “GFP activation” value does the source give for `CCOc1ccc(C(=O)N/N=C/c2ccc(-c3ccc(S(=O)(=O)Nc4ncccn4)cc3)o2)cc1` here?
A: The value was inactive: -0.696%.

Q: With `CCc1ccc(NC(=O)Cn2nc3c4ccccc4n(Cc4ccccc4)cc-3c2=O)cc1` as the compound, how does the Potency read?
A: Its Potency is inconclusive: 12.6 µM [activator, single point].

Q: With `COc1ccc(CCN2CC(C(=O)NCc3ccco3)CC2=O)cc1OC` (stereo not drawn) as the compound, how does the Potency read?
A: The Potency was inconclusive: 0.0501 µM [activator, full curve, poor fit].

Q: With `O=[N+]([O-])c1c(NCCO)cc(Sc2nc3ccccc3s2)c2nonc12` as the compound, how does the Potency read?
A: Its Potency is inconclusive: 4.47 µM [activator, single point].

Q: With `COc1ccc(Cn2c(=O)c3cccnc3n(CC(=O)Nc3ccc(C)c(F)c3)c2=O)cc1` as the compound, how does the Potency read?
A: The Potency was inconclusive: 31.6 µM [activator, single point].

Q: Which “GFP activation” value does the source give for `Cc1cccc(-n2c(C)cc(/C=N/NC(=O)c3cccc([N+](=O)[O-])c3C)c2C)c1` here?
A: The value was inactive: 5.8%.

Q: Which “GFP activation” value does the source give for `O=C(COc1ncnc2ccccc12)Nc1ccc(S(=O)(=O)N2CCOCC2)cc1` here?
A: The value was inactive: 3.75%.

Q: For `O=c1oc2cc(O)ccc2cc1-c1nc2c(s1)CCc1ccccc1-2`, which Potency is on record?
A: The Potency was inconclusive: 0.631 µM [activator, full curve, poor fit].

Q: Which “GFP activation” value does the source give for `O=c1c2ccccc2nnn1CSc1nc2ccccc2c(=O)n1CCCO` here?
A: The value was inactive: 0.935%.

Q: For `Cc1ccc(-c2nc3cnccn3c2Nc2c(C)cccc2C)o1`, which Potency is on record?
A: The Potency was inconclusive: 31.6 µM [activator, single point].

Q: With `C#CC(=O)N(c1cccc(OC)c1)C(C(=O)NC1CCCC1)c1cccs1` (stereo not drawn) as the compound, how does the Potency read?
A: Its Potency is inconclusive: 20 µM [activator, single point].

Q: Which Potency does the source give for `CCOC(=O)c1cnc2c(-c3ccc(F)cc3)cnn2c1C(F)(F)F` here?
A: Its Potency is inconclusive: 35.5 µM [activator, single point].

Q: Which Potency does the source give for `N#Cc1cc2c(nc1SCC(=O)Nc1sc3c(c1C#N)CCC3)CCC2` here?
A: The Potency was inconclusive: 35.5 µM [activator, single point].

Q: With `CCOC(=O)N1CCN(S(=O)(=O)c2ccc(C(=O)Nc3sc4c(c3C#N)CCC4)cc2)CC1` as the compound, how does the Potency read?
A: Its Potency is inconclusive: 25.1 µM [activator, single point].

Q: Which Potency does the source give for `Nc1nc(SCc2ccc([N+](=O)[O-])cc2)nc2nc3c(cc12)CCCC3` here?
A: The Potency was inconclusive: 15.8 µM [activator, single point].

Q: Which Potency does the source give for `COc1ccccc1CNC(=O)CCn1c(=O)c2ccccc2n(CC(=O)Nc2ccc(C)cc2Cl)c1=O` here?
A: Its Potency is inconclusive: 22.4 µM [activator, single point].

Q: For `CCCN(CCC)C(=O)Cn1c(=O)n(-c2ccccc2)c(=O)c2c3c(sc21)CCCC3`, which “GFP activation” value is on record?
A: The value was inactive: 0.885%.

Q: Which Potency does the source give for `COc1cc(/C=C(\C#N)c2nc3ccccc3[nH]2)cc(Cl)c1OCc1ccccc1Cl` here?
A: Its Potency is active: 11.2 µM.

Q: With `Cc1cc(=O)n2cccc(O)c2n1` as the compound, how does the Potency read?
A: The Potency was inconclusive: 35.5 µM [activator, single point].

Q: For `O=C(NCCCN1CCOCC1)C(=O)N/N=C/c1c2ccccc2cc2ccccc12`, which Potency is on record?
A: Its Potency is inconclusive: 28.2 µM [activator, single point].

Q: With `COc1ccc(C(=O)Oc2c(CN3CCOCC3)cc(Cl)c3cccnc23)cc1` as the compound, how does the Potency read?
A: The Potency was active: 7.08 µM.

Q: For `CC(=O)NNc1nc(-c2ccc(C)cc2)cs1`, which “GFP activation” value is on record?
A: Its value is inactive: -1.43%.

Q: With `CC1(C)CC(=O)C2=C(C1)OC(N)=C(C#N)C2C#Cc1ccccc1` (stereo not drawn) as the compound, how does the Potency read?
A: The Potency was inconclusive: 35.5 µM [activator, single point].

Q: Which Potency does the source give for `O=C1COc2ccc(C(=O)CSc3nc4ccccc4c(=O)n3-c3ccc(Cl)c(Cl)c3)cc2N1` here?
A: The Potency was inconclusive: 17.8 µM [activator, single point].

Q: With `COC(=O)c1ccc2c(c1)N(CC(=O)Nc1ccc(C)cc1Cl)C(=O)c1ccccc1S2` as the compound, how does the Potency read?
A: The Potency was inconclusive: 25.1 µM [activator, single point].

Q: Which Potency does the source give for `CCc1ccc(C(=O)/C=C/c2ccc([N+](=O)[O-])o2)cc1` here?
A: The Potency was inconclusive: 31.6 µM [activator, single point].

Q: Which “GFP activation” value does the source give for `CC(C1CCCC(=O)C1)[N+](=O)[O-]` (stereo not drawn) here?
A: Its value is inactive: -1.14%.

Q: With `Cc1ccc(/C=N/NC(=S)Nc2cccc(S(=O)(=O)N(C)C)c2)o1` as the compound, how does the Potency read?
A: The Potency was active: 3.98 µM.

Q: Which “GFP activation” value does the source give for `O=S(=O)(Nc1cccc(-c2ccc(N3CCOCC3)nn2)c1)c1ccc(F)c(C(F)(F)F)c1` here?
A: Its value is inactive: 0%.

Q: For `CC1(C)Cc2c(sc3c2C(=O)N(c2ccccc2)C2=NCCN23)CS1`, which “GFP activation” value is on record?
A: The value was inactive: -0.943%.

Q: Which “GFP activation” value does the source give for `Cc1cccc(C(=O)Nc2ccccc2OCc2cc(=O)n3cc(C)ccc3n2)c1` here?
A: The value was inactive: -1.64%.

Q: Which Potency does the source give for `Cc1ccc(CN2CCC(CNC(=O)Nc3cccc(C)c3C)C2)cc1` (stereo not drawn) here?
A: The Potency was inconclusive: 12.6 µM [activator, single point].

Q: With `Cc1c(Cl)cccc1NC(=O)Cn1c(=O)n(Cc2ccco2)c(=O)c2oc3ccccc3c21` as the compound, how does the Potency read?
A: The Potency was inconclusive: 14.1 µM [activator, single point].

Q: For `N#CC1=C(SCC(=O)c2ccc(Br)cc2)NC2=C(C(=O)CCC2)C1c1ccco1` (stereo not drawn), which Potency is on record?
A: The Potency was inconclusive: 12.6 µM [activator, single point].

Q: Which Potency does the source give for `CCCc1cc(-n2ccnc2)n2c(nc3ccccc32)c1C#N` here?
A: The Potency was inconclusive: 35.5 µM [activator, single point].

Q: Which Potency does the source give for `N#CC1=C(S)N(c2ccc(F)cc2)C2(CCCCC2)NC1=O` here?
A: The Potency was inconclusive: 31.6 µM [activator, single point].

Q: For `COc1ccc(/C=N/N=C2/NC(=O)C(CC(=O)NC(C)C)S2)cc1` (stereo not drawn), which Potency is on record?
A: Its Potency is inconclusive: 28.2 µM [activator, single point].

Q: With `O=C(Nc1cccc(C(F)(F)F)c1)C1CCCN(S(=O)(=O)c2cccc3nonc23)C1` (stereo not drawn) as the compound, how does the Potency read?
A: The Potency was inconclusive: 35.5 µM [activator, single point].

Q: With `CCOc1ccccc1NC(=O)Cn1c(=O)n(Cc2ccco2)c(=O)c2sc3ccccc3c21` as the compound, how does the Potency read?
A: Its Potency is inconclusive: 11.2 µM [activator, partial curve].

Q: For `CCN(CC)c1ccc2c(c1)CCCN2`, which Potency is on record?
A: The Potency was inconclusive: 31.6 µM [activator, single point].

Q: Which “GFP activation” value does the source give for `COc1ccc2[nH]cc(CCNC(=O)C3CC3)c2c1` here?
A: Its value is inactive: 1.05%.

Q: For `COc1ccccc1NC(=O)c1cnn(-c2ccccc2)c1-n1cccc1`, which Potency is on record?
A: The Potency was inconclusive: 35.5 µM [activator, single point].

Q: For `CCOC(=O)N1CCC(N2Cc3cccc(C(=O)NCc4ccc(C)cc4)c3C2=O)CC1`, which Potency is on record?
A: The Potency was inconclusive: 35.5 µM [activator, single point].

Q: For `Cc1cccc(NC(=O)Cn2c(=O)n(Cc3ccccc3)c(=O)c3oc4ccccc4c32)c1C`, which “GFP activation” value is on record?
A: Its value is inactive: 1.29%.

Q: With `CCN(CC)c1ccc(C2C(C(N)=O)=C(C)Nc3nc(SCc4ccccc4Cl)nn32)cc1` (stereo not drawn) as the compound, how does the Potency read?
A: Its Potency is inconclusive: 31.6 µM [activator, single point].

Q: With `O=C(/C=C/c1ccc(Cl)cc1)c1cccnc1` as the compound, how does the Potency read?
A: Its Potency is inconclusive: 35.5 µM [activator, single point].

Q: Which Potency does the source give for `Oc1sc(C=Nc2ccccc2)c2ccccc12` here?
A: The Potency was inconclusive: 22.4 µM [activator, single point].

Q: Which “GFP activation” value does the source give for `CCN1CCN(C(=S)c2ccc(Br)cc2)CC1` here?
A: Its value is inactive: -0.943%.

Q: For `CCOC(=O)CC1C(=O)NCCN1c1nc2c(C)cccn2c(=O)c1/C=C1\SC(=S)N(CC(C)C)C1=O` (stereo not drawn), which Potency is on record?
A: The Potency was active: 7.94 µM.

Q: Which “GFP activation” value does the source give for `COc1ccc(OC)c2sc(NC(=O)C3=COCCO3)nc12` here?
A: The value was inactive: 1.92%.

Q: Which Potency does the source give for `Cc1ccccc1-n1nc(CO)c(C(=O)NCc2cccnc2)n1` here?
A: The Potency was inconclusive: 6.31 µM [activator, single point].

Q: For `Cc1ccc(C)c(S(=O)(=O)c2cn(C)c3cc(N4CCCCC4C)c(F)cc3c2=O)c1` (stereo not drawn), which “GFP activation” value is on record?
A: Its value is inactive: 0%.

Q: For `Cc1cc(NCc2ccccn2)n2ncc(-c3ccccc3)c2n1`, which Potency is on record?
A: Its Potency is inconclusive: 35.5 µM [activator, single point].

Q: For `COc1ccc(C)cc1NC(=O)c1ccc2c(=O)n3c(nc2c1)CCCCC3`, which Potency is on record?
A: Its Potency is inconclusive: 11.2 µM [activator, partial curve].

Q: For `Cc1cc2oc(=O)cc(CN3CCN(C/C=C/c4ccccc4)CC3)c2cc1O`, which “GFP activation” value is on record?
A: The value was inactive: 1.61%.

Q: Which “GFP activation” value does the source give for `O=C(NCCCN1CCOCC1)c1ccc(Cc2nc3ccccc3[nH]2)cc1` here?
A: The value was inactive: -1.6%.

Q: For `O=C(/C=C/c1cccc([N+](=O)[O-])c1)NC(=S)Nc1ccccc1C(=O)O`, which Potency is on record?
A: The Potency was inconclusive: 28.2 µM [activator, single point].

Q: Which Potency does the source give for `CN(C)c1ccc(/C=C/c2nc3ccccc3s2)cc1` here?
A: Its Potency is inconclusive: 28.2 µM [activator, single point].

Q: With `O=C(O)C(=O)/C(=C\c1ccc([N+](=O)[O-])cc1)c1ccc2ccccc2n1` as the compound, how does the Potency read?
A: The Potency was inconclusive: 28.2 µM [activator, single point].

Q: Which Potency does the source give for `COc1cc2c(cc1OC)[C@H](Cc1ccc(O)cc1)NCC2` here?
A: Its Potency is inconclusive: 31.6 µM [activator, single point].

Q: With `O=C(Cc1cccs1)Nc1cccc(-c2nc3ccccc3o2)c1` as the compound, how does the Potency read?
A: Its Potency is inconclusive: 31.6 µM [activator, single point].

Q: For `COc1ccc2c(COC(=O)CC3Sc4ccccc4NC3=O)cc(=O)oc2c1` (stereo not drawn), which Potency is on record?
A: Its Potency is inconclusive: 31.6 µM [activator, single point].

Q: With `CCOC(=O)c1c(C)oc2c1c(C=NCc1ccccn1)c(O)c1ccccc12` as the compound, how does the Potency read?
A: The Potency was inconclusive: 31.6 µM [activator, single point].

Q: For `CC(C)c1ccc(NC(=O)C2CCCN(S(=O)(=O)c3cccc4nsnc34)C2)cc1` (stereo not drawn), which Potency is on record?
A: Its Potency is inconclusive: 35.5 µM [activator, single point].

Q: For `C=CCNC(=S)NNC(=O)c1cc(O)ccc1O`, which “GFP activation” value is on record?
A: Its value is inactive: -7.1%.

Q: For `CC(C(=O)Nc1ccccc1C(F)(F)F)n1nnc2sc3c(c2c1=O)CCCC3` (stereo not drawn), which Potency is on record?
A: The Potency was inconclusive: 35.5 µM [activator, single point].
